Results taken from the supplement of paper PMC8948288.
Shown are siRNA guide strands that differ only in the seed, positions 2 to 7.

How the values were obtained:
[1] = tested on: GL261; assay: cell viability relative to siNT1 (ATP content); H4 human neuroglioma and GL261 mouse glioma; higher = less toxic; settings: siRNA concentration 25 nM; 96 h; mouse
Procedure: (§1)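 Arrayed screen of all 4096 6mer seeds. Each seed sits at guide-strand positions 2-7 of a neutral 19mer siRNA backbone (siNT1-based, passenger strand 2'-O-methyl modified at positions 1-2 to block RISC loading, 3' DNA overhangs). The guide strand is built here as U + seed + ACAUGUAAACCA. Cells were reverse transfected in triplicate in 384-well plates (H4 at 10 nM, GL261 at 25 nM) with Lipofectamine RNAiMAX. Viability was read as ATP content (CellTiter-Glo) 96 h after transfection and normalised to siNT1 (%).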

[2] = tested on: H4; assay: as above; settings: siRNA concentration 10 nM; 96 h; human
Procedure: as §1
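Further: cells reverse transfected with siRNA duplexes via lipid reagent, ATP read by luminescence, triplicate wells, values scaled to mean viability with non-targeting control siNT1.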

Sequence	cell viability [1] [%]	cell viability [2] [%]
UACUCAGACAUGUAAACCA	44.7	85.6
UACUCAUACAUGUAAACCA	51	80.4
UACUCCAACAUGUAAACCA	55.9	76.8
UACUCCCACAUGUAAACCA	35.8	60.1
UACUCCGACAUGUAAACCA	53.6	81.4
UACUCCUACAUGUAAACCA	21.5	17.2
UACUCGAACAUGUAAACCA	72.1	89.7
UACUCGCACAUGUAAACCA	25.6	59
UACUCGGACAUGUAAACCA	47	83.9
UACUCGUACAUGUAAACCA	43.4	77.8
UACUCUAACAUGUAAACCA	71.1	87.6
UACUCUCACAUGUAAACCA	38.4	52.7
UACUCUGACAUGUAAACCA	58.4	81.5
UACUCUUACAUGUAAACCA	60.3	80.2
UACUGAAACAUGUAAACCA	67.8	80.6
UACUGACACAUGUAAACCA	26.4	57.5
UACUGAGACAUGUAAACCA	63.1	106
UACUGAUACAUGUAAACCA	58.3	68.3
UACUGCAACAUGUAAACCA	53.3	108
UACUGCCACAUGUAAACCA	18.7	48.4
UACUGCGACAUGUAAACCA	65.2	98.7
UACUGCUACAUGUAAACCA	36.3	52

Sequence	cell viability [1] [%]	cell viability [2] [%]
UACUGGAACAUGUAAACCA	69.1	92.4
UACUGGCACAUGUAAACCA	32.6	24.4
UACUGGGACAUGUAAACCA	48	39.2
UACUGGUACAUGUAAACCA	69.7	65.1
UACUGUAACAUGUAAACCA	65.7	89.7
UACUGUCACAUGUAAACCA	62.7	55.6
UACUGUGACAUGUAAACCA	59.8	80.4
UACUGUUACAUGUAAACCA	51	104
UACUUAAACAUGUAAACCA	66.3	111
UACUUACACAUGUAAACCA	55.2	66.8
UACUUAGACAUGUAAACCA	69.6	115
UACUUAUACAUGUAAACCA	53.7	59
UACUUCAACAUGUAAACCA	62.3	85
UACUUCCACAUGUAAACCA	31.3	43
UACUUCGACAUGUAAACCA	61	92.2
UACUUCUACAUGUAAACCA	33.1	70.5
UACUUGAACAUGUAAACCA	52.7	75.9
UACUUGCACAUGUAAACCA	20.4	29.4
UACUUGGACAUGUAAACCA	25.1	75
UACUUGUACAUGUAAACCA	9.25	106
UACUUUAACAUGUAAACCA	67.6	84.8
UACUUUCACAUGUAAACCA	45.4	62.3

Sequence	cell viability [1] [%]	cell viability [2] [%]
UACUUUGACAUGUAAACCA	67.2	80.9
UACUUUUACAUGUAAACCA	56.6	88.5
UAGAAAAACAUGUAAACCA	43.3	103
UAGAAACACAUGUAAACCA	37.8	98.8
UAGAAAGACAUGUAAACCA	57.3	85.5
UAGAAAUACAUGUAAACCA	46.4	78.9
UAGAACAACAUGUAAACCA	46.7	78.5
UAGAACCACAUGUAAACCA	26.9	67.9
UAGAACGACAUGUAAACCA	52.4	81.7
UAGAACUACAUGUAAACCA	28.3	83.3
UAGAAGAACAUGUAAACCA	52.3	76.1
UAGAAGCACAUGUAAACCA	17.9	60.2
UAGAAGGACAUGUAAACCA	57.3	70.1
UAGAAGUACAUGUAAACCA	58.7	70.5
UAGAAUAACAUGUAAACCA	74	82.8
UAGAAUCACAUGUAAACCA	47.7	76.3
UAGAAUGACAUGUAAACCA	75	89
UAGAAUUACAUGUAAACCA	71.3	80.2
UAGACAAACAUGUAAACCA	49.1	84.2
UAGACACACAUGUAAACCA	39	61
UAGACAGACAUGUAAACCA	31.2	68.4
UAGACAUACAUGUAAACCA	60.9	79.2

Sequence	cell viability [1] [%]	cell viability [2] [%]
UAGACCAACAUGUAAACCA	43.6	90.9
UAGACCCACAUGUAAACCA	12.4	78.7
UAGACCGACAUGUAAACCA	41.7	79.3
UAGACCUACAUGUAAACCA	33.4	103
UAGACGAACAUGUAAACCA	40.8	89.6
UAGACGCACAUGUAAACCA	37	68.9
UAGACGGACAUGUAAACCA	31.7	54.6
UAGACGUACAUGUAAACCA	35.7	118
UAGACUAACAUGUAAACCA	43.7	103
UAGACUCACAUGUAAACCA	20.2	87
UAGACUGACAUGUAAACCA	54.3	86.2
UAGACUUACAUGUAAACCA	36.1	81.8
UAGAGAAACAUGUAAACCA	48.9	91
UAGAGACACAUGUAAACCA	30.5	76.8
UAGAGAGACAUGUAAACCA	48.6	79.8
UAGAGAUACAUGUAAACCA	16.9	86.8
UAGAGCAACAUGUAAACCA	60.3	82.3
UAGAGCCACAUGUAAACCA	24.4	39.2
UAGAGCGACAUGUAAACCA	51.6	93
UAGAGCUACAUGUAAACCA	38.4	67.8
